The supplement of paper PMC11417369
± gives the standard deviation of the averaged measurements. The list shows a part of the results.

Test system: PfAP2-G AP2 domain (GST-tagged)
Experiment: gcPBM binding intensity (ln(normalized median fluorescence intensity)); higher = stronger DNA binding
Procedure, shortened: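 Binding intensity is the highest Masliner-normalised natural-log median intensity over replicate spots in either probe orientation. To obtain it, GST-tagged P. falciparum DNA-binding domains made in E. coli were incubated for 1 h on an Agilent 4 × 180k array of primer-extended double-stranded 36-bp intergenic genomic probes plus negative controls. Detection used Alexa488 anti-GST antibody with scanning at 488 nm.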

Row | Sequence | gcPBM binding intensity (ln)
1 | CCCATTTTGACAAAAAGTACAAGTTCAGGTTTTATA [XGTACX_site1532] | 11.3 ± 0.88
2 | TATAATATTAATGACTGTACTCATACGTATATTTAT [XGTACX_site5493] | 11.6 ± 0.88
3 | TTTAATTTATATTTTGTGCACATCTTATTATATATA [GTGCAC_site9630] | 10.5 ± 0.32
4 | AATTTTGTTTAGCACACACACATACATACATACATA [CACACA_site5707] | 10.3 ± 0.2
5 | TATATTTATTCCTGTTGTACTTTATATTATTTTTTT [XGTACX_site1415] | 11.3 ± 0.6
6 | ATATATATATATATATGTACATACATACATAGAACT [XGTACX_site2214] | 11.5 ± 0.7
7 | TCCCATTTATTATGGTGTACAATTAATTAAACATAA [XGTACX_site750] | 11.4 ± 0.91
8 | TTTCTCTTCTAAACATGTACAAAAATACATACATAT [XGTACX_site1365] | 10.9 ± 0.65
9 | AAAAATTAAAATATTATAGTTGAAACTTTTATAAAT [TGCATGCA_negctrl_site454] | 9.52 ± 0.15
10 | ACATATTAATTATTATGACATACATATCAGTTATTA [TGCATGCA_negctrl_site126] | 9.79 ± 0.11
11 | CATGTGATAATGATTAGTACATAAACAAAAATATAT [XGTACX_site5866] | 11.2 ± 0.61
12 | AGAAAAATAAACAAATGTACAAATTATTACTATATA [XGTACX_site1087] | 10.49 ± 0.021
13 | TATATTATTTTATATTGTACATACCAAATATTATAT [XGTACX_site1693] | 11 ± 0.64
14 | CGTAAATTTTTTAAAAGTACAAAAAGATACGAGAAA [XGTACX_site8722] | 11.3 ± 0.76
15 | TAAACAAATAAATAAACACACAATATATGTATATAT [CACACA_site3803] | 9.83 ± 0.11
16 | TTTTTACGTAAACAAAATAATTATATAATATTATTT [CACACA_negctrl_site1769] | 10.15 ± 0.099
17 | TATTTTTCTTTTTTCTGTACTCACACAAATAGAAGG [XGTACX_site7329] | 11.6 ± 0.81
18 | ATATTTATATTTGTATGTACTTAAGTTTGTATGTAT [XGTACX_site3608] | 11.3 ± 0.87
19 | TTTTTAATTCAAAAAATAATATATTATATTTCAAAT [CACACA_negctrl_site737] | 9.57 ± 0.14
20 | ATATATTAGGGCAAATTTTCTGACATTACATCAGTC [CACACA_negctrl_site1166] | 9.95 ± 0.014
21 | AAATAATTAGCTATTTGTACATATATACATATTTAT [XGTACX_site4652] | 10.6 ± 0.26
22 | TTAATAACAAAATAAACACACATATATAAATCCACA [CACACA_site1590] | 10.1 ± 0.17

Row | Sequence | gcPBM binding intensity (ln)
23 | ATATATATAATATAGGTGCACTACTTATTTAAAAAA | 10.5 ± 0.36
24 | TAAAAATGTAGACACACACACATATATATATTTAAT [CACACA_site1528] | 10.2 ± 0.18
25 | TTTTTTAGAAAAAGTTGTACTTTTTTTTTTTTTTTT [XGTACX_site535] | 11.6 ± 0.93
26 | TGTGTTAAATGTAATAGTGAATAAATAATTTTAACA [TGCATGCA_negctrl_site161] | 9.725 ± 0.049
27 | AAAATGAATATAATGACGCACACTTAAAATTGTTAA [CACACA_site2509] | 10.2 ± 0.28
28 | ATATTTTAAATGTTATGTACACATTTGTTGTTTACA [XGTACX_site7353] | 11.4 ± 0.83
29 | AATATTATTATTATTACACACACAATTATATTTACC [CACACA_site8061] | 10.1 ± 0.16
30 | ATTTTTTTTTTTATTTTCTTTGAGATTATCTTAATT [CACACA_negctrl_site1209] | 9.78 ± 0.14
31 | TTAATTTGTTCTTACACACACATATATATATATTTA [CACACA_site1185] | 10.2 ± 0.16
32 | TATATATATACATAATGTACATTTTATAAATTTACA [XGTACX_site5283] | 10.8 ± 0.53
33 | ATAAATTGTTCTTTTTGTGTAAACAGAATATTAAAA [CACACA_negctrl_site1022] | 10.1 ± 0.21
34 | ACTACCTATATTTAAGCATGCAAAAAATAAAAATAT [TGCATGCA_site238] | 10 ± 0.29
35 | AAACCAATAAAAAACTGTACAAAAATTATATGAGAT [XGTACX_site1269] | 10.8 ± 0.28
36 | GAATAAAAAATATATGTGCACATATAAACTTAAAAT [GTGCAC_site9554] | 10.3 ± 0.18
37 | TAATATAAAGGAAAAGAAAAGAAAAGAATATACAAT [CACACA_negctrl_site1369] | 9.635 ± 0.035
38 | ATACAACATATATATACACACATATAATAATAATAA [CACACA_site3367] | 10.1 ± 0.29
39 | AATTATTTTTTGTATGAACACACAACTTAATTATGA [CACACA_site8774] | 10.1 ± 0.22
40 | TTGAATGTAGTTAAATGTACATGTAATATATAAAAA [XGTACX_site1250] | 11.2 ± 0.68
41 | TTTGTTTTAAATCGAAGTACACATAATTATATTTTA [XGTACX_site1541] | 11.3 ± 0.88
42 | AAAAAAAAAAAAAAAATACACACGTGAATGTATTGT [CACACA_site1320] | 10.3 ± 0.085
43 | AAATAACACATATATACACACATATAAATATAATAT [CACACA_site2692] | 10.1 ± 0.16
44 | AAAAAACTTATAATCACACATATGATTAAATATTAA [CACACA_site4956] | 9.685 ± 0.092

Row | Sequence | gcPBM binding intensity (ln)
45 | ATAGGACCTATGTGCCCATGGGTACATTAAAAAAAA [CACACA_negctrl_site1465] | 11.5 ± 0.99
46 | CATTATGTCATAAATGCACACATATACATTGTTTTG [CACACA_site8118] | 10.04 ± 0.092
47 | TAATGTATGAAATAAACACACAAGTAAGTACATAAA [CACACA_site2451] | 11.6 ± 0.98
48 | ATATATTTTATTCCTATATATATATATATATATATA [GTGCAC_negctrl_site556] | 9.98 ± 0.32
49 | AATAAATTATTTATTGCATGTAATATGAATATTTTT [TGCATGCA_site798] | 9.91 ± 0.16
50 | AAAACACCCAAACACACACACACATATATATATATA [CACACA_site9119] | 10.2 ± 0.44
51 | TTCTTGTATTTTCATAGTACATATAATGTCGTGTTA [XGTACX_site7714] | 10.8 ± 0.52
52 | TCTGTAGTTTTTTACAGTACTTTTAGGTAATACATA [XGTACX_site7417] | 11 ± 0.79
53 | AGAAAAAAAATATACACACATACGATCATACATATG [CACACA_site2171] | 10.2 ± 0.13
54 | ACCTCTTTGAAATATACACACTAAACATATCAACTT [CACACA_site5372] | 10.1 ± 0.11
55 | TACATAGAGTTTGTTTGTACTCATATGCGTAAATTC [XGTACX_site4810] | 11.2 ± 0.79
56 | AGGATACACGGACACACACACATATAGATTTATATA [CACACA_site6552] | 11.2 ± 0.78
57 | TTTTTATTTTTTTTATGTACACAAATGATATACATA [XGTACX_site5910] | 11.4 ± 0.73
58 | TTTCTTTTTTTTTTTTTTTCTGGCTTTTTCTCTTTT [TGCATGCA_negctrl_site599] | 9.6 ± 0.085
59 | TATATTACTTAAAATACACACCATGGAAAAGTTTTA [CACACA_site5443] | 10.1 ± 0.17
60 | ATTATTTTTCTATGTGTGCACGTGTGGAATGTGTCT [GTGCAC_site9507] | 10.8 ± 0.51
61 | TTCTGAACAAAATTATATATTTATTTTTATTTTCAT [CACACA_negctrl_site422] | 9.54 ± 0.33
62 | ATAAGATGATGGAACTGTAATATATATATATATATA [CACACA_negctrl_site839] | 9.88 ± 0.42
63 | TTTAAGAGTTGCACACGTACAAAAAAAAAAAAAAAA [XGTACX_site7406] | 11.2 ± 1
64 | TTGTATACATAAAATGGTACAGAATATATAATTCTA [XGTACX_site7236] | 10.8 ± 0.57
65 | GTATACCAACATATTATACACACCTTTATATTTTTT [CACACA_site2153] | 10.09 ± 0.042
66 | ATTTTTTTCTTTTCTTTTTTCTTTTTTTTTTTTGGT [CACACA_negctrl_site1146] | 9.72 ± 0.18

Row | Sequence | gcPBM binding intensity (ln)
67 | GTAATGAAACATTGCACACATATAATAATATAATAT [CACACA_site1422] | 10.06 ± 0.064
68 | TTAATTAAAATTTATACATGCATAAAAGAAATACAC [TGCATGCA_site537] | 10.4 ± 0.48
69 | ATTACATGTTACTTAACACACATCTGGTGAAATAAT [CACACA_site171] | 9.94 ± 0.15
70 | TTTTTATATTCCCCCAGTACATATATAATAGTAGTA [XGTACX_site7927] | 11.3 ± 0.76
71 | TTATACTGTTTCAGAAAAATAAAGAATGAAAGTATT [XGTACX_negctrl_site230] | 10 ± 0.18
72 | TATTTTAATGAAGCATTTAAGGGAAAAAAAAAAAAA [TGCATGCA_negctrl_site606] | 9.71 ± 0.45
73 | TGCAACAAAATAAACACACACACACCCCCACAAAAA [CACACA_site3388] | 11.1 ± 0.67
74 | AATAAAAAAATAAAATGTACATACAAATAAATAAAT [XGTACX_site5153] | 11.1 ± 0.48
75 | ATAATACAAAAAAAAAAAAAAAATAAAATAATAAAA [GTGCAC_negctrl_site722] | 9.52 ± 0.11
76 | ATTTTTTCTGTCTTAATTGGACCCACTGCAAATGGG [CACACA_negctrl_site1158] | 10.9 ± 0.54
77 | TATTTTTAAATATAAAGTACTTATATTAACTACGAA [XGTACX_site1524] | 11.2 ± 0.62
78 | AAGTAATACAACACGCACATATATATATATATATAT [GTGCAC_negctrl_site89] | 10.4 ± 0.5
79 | TACCTAAATAAATGGACACACACATATATATATATA [CACACA_site8407] | 10.8 ± 0.53
80 | TTATAGCCTGTGAAGAGTACATTTTTATTTTTTATT [XGTACX_site4105] | 11.1 ± 0.7
81 | TACAAAATATATATGACACACACAAAAAAAGTATAT [CACACA_site8455] | 10.27 ± 0.092
82 | TATTTTTCCATTGGGGGTACATGTGTTATATTTATT [XGTACX_site5914] | 11.7 ± 0.88
83 | AGACGAAAATAATAAAGTACTAAAAAAAAAAAAAAA [XGTACX_site927] | 10.9 ± 0.92
84 | TTCATATATTTTAAAGCATGCATTCATCTTATAGTT [TGCATGCA_site800] | 9.67 ± 0.27
85 | TTTACGCTATAGGAGAGTACTTATAAAATCCTGTGT [XGTACX_site2364] | 11 ± 0.66
86 | ATATATATGCATATATGTACTTAAAATATAAAGGCA [XGTACX_site3256] | 11.2 ± 0.73
87 | GAGAAAGATATATACACACACATAAATATGTACATA [CACACA_site6975] | 11.3 ± 0.81
